About 9,900 (2.8%) of roughly 350,000 compounds were called active. Inconclusive results, whose numbers are uncertain, are shown with a selection of clear calls. Calls come from the whole dose curve; as a rule, active = well fitted activation curve with a large enough effect; inconclusive = small, poorly fitted or top-dose-only effect; inactive = no such curve, though single readings can be large or run the other way. No potency is given beside an inconclusive call; the fits are too rough.
Experiment: A quantitative high throughput screen for small molecules that induce DNA re-replication in MCF 10a normal breast cells. Note: nearly all actives have a fitted effect of over 50% in size.
Details: MCF 10A DNA re-replication, Hoechst nuclear intensity, 48 h; series mostly up to 46.1 µM
Potency is the fitted concentration of half-maximal effect; tags give direction and shape of the fitted curve.

SMILES	Potency
CCCCNc1c(-c2cccc(-c3cc(C(C)=O)cs3)c2)nc2cc(C)ccn12	inconclusive [activator, partial curve, poor fit]
COc1ccc(NC(=O)c2[nH]c(C)c(C(C)=O)c2C)cc1Cl	inconclusive [activator, full curve, poor fit]
O=C1CS/C(=N/N=C2C3CC4CC(C3)CC2C4)N1	inactive
CC(C)CCNC(=S)Nc1ccc(Br)cc1	inconclusive [activator, partial curve, poor fit]
Cn1cnc2c1c(=O)n(Cc1cccc(F)c1)c(=O)n2C	inactive
O=C(O)CSc1c2c(nc3cc(C(=O)Nc4ccc(F)c(Cl)c4)ccc13)CCCC2	inconclusive [activator, single point]
Cc1ncc([N+](=O)[O-])n1CCOC(=O)c1cc(Cl)cc(Cl)c1N	inactive
C=CCn1c2ccccc2c2nn(C)c(=S)nc21	inactive
O=C(O)c1ccc(N2C(=O)/C(=C/c3ccc(-c4ccc([N+](=O)[O-])cc4)o3)C=C2c2ccccc2)cc1	inconclusive [activator, partial curve, poor fit]
O=C1[C@@H]2Cc3c([nH]c4ccccc34)C(c3cccc([N+](=O)[O-])c3)N2C(=O)CN1CCCO (some centres undefined)	inactive
O=C(CCl)N1c2ccccc2SCC1c1ccccc1 (centres undefined)	active: 7.31 µM
CC(C)(C)c1ccc(C(=O)NNC(=O)c2ccccc2Br)cc1	inconclusive [activator, partial curve, poor fit]
C[C@H]1CN([C@@H](C)CO)C(=O)c2cccc(NS(=O)(=O)c3ccc(F)cc3)c2O[C@H]1CN(C)S(=O)(=O)c1cn(C)cn1	inactive
CCc1noc(C)c1C(=O)OCC(=O)N(C)c1c(N)n(Cc2ccccc2)c(=O)[nH]c1=O	inactive
O=C(NNC(=O)c1cccc(S(=O)(=O)N2CCN(c3ccccc3)CC2)c1)c1ccc(Cl)cc1	inconclusive [activator, single point]
CCOc1ccc(NC(=O)CSc2nc3ccccc3nc2N2CCOCC2)cc1	inconclusive [activator, single point]
CCCCN(C(=O)c1cc2ccccc2o1)c1c(N)n(CCC)c(=O)[nH]c1=O	inactive
Cc1ccc(SCC(=O)Nc2ccc(N3CCN(C)CC3)c(F)c2)c(C)c1	inconclusive [activator, partial curve, poor fit]
O=C(NC(=S)Nc1cccc(Cl)c1N1CCCCC1)c1ccco1	inconclusive [activator, partial curve, poor fit]

— PubChem BioAssay AID624296 (National Center for Advancing Translational Sciences (NCATS), 2012)
